These are literature values, as cited in article PMC11006913.

Conditions in all cases: PBM; conditions not shown; double strand, one strand shown; scale: upbm affinity estimate (log intensity, higher = more binding, comparable within an allelic series)
The target in data set [1] is NKX2-5 K183E (Homo sapiens) (UniProt P52952).
Data set [2] has as its target NKX2-5 R161P (Homo sapiens) (UniProt P52952).
For data set [3], the target named is NKX2-5 R190C (Homo sapiens) (UniProt P52952).

The list shows a part of the results.

For the sequence AAGTGTTC [8-mer AAGTGTTC], the binding signal in data set [1] was 10.9; in data set [2], 12.2; in data set [3] it was 10.7.

For the sequence ACCAGCTG [8-mer ACCAGCTG], the binding signal in data set [1] was 10; in data set [2], 10.2; in data set [3], 10.

CGCTCTGC [8-mer CGCTCTGC]: the binding signal in data set [1] is 10.2; in data set [2], 10.3; in data set [3], 10.2.

In the case of CGGGTCGC [8-mer CGGGTCGC], the binding signal is 10 in data set [1], 9.94 in data set [2] and 10.1 in data set [3].

As for CAGCCTTC [8-mer CAGCCTTC], the binding signal in data set [1] was 10.1; in data set [2], 10.3; in data set [3] it was 10.1.

For ACCTCCCG [8-mer ACCTCCCG], the binding signal in data set [1] is 10.2; in data set [2], 10.3; in data set [3], 10.2.

Turning to CAAGTATC [8-mer CAAGTATC], the binding signal in data set [1] was 11.1; in data set [2], 12.1; in data set [3], 10.8.

For CGGAGGCA [8-mer CGGAGGCA], the binding signal in data set [1], in data set [2] and in data set [3] was 10.2 throughout.

CGGACCGC [8-mer CGGACCGC]: the binding signal in data set [1] is 10.1; in data set [2], 10.2; in data set [3], 10.1.

With CACTTACA [8-mer CACTTACA], the results for the binding signal in data set [1], in data set [2] and in data set [3] were 11.4, 12.5 and 10.9, respectively.

With CCACTTCA [8-mer CCACTTCA], the binding signal in data set [1] was 11.9; in data set [2], 13; in data set [3] it was 10.6.

CGGCCCCG [8-mer CGGCCCCG]: the binding signal in data set [1] is 10.1; in data set [2], 10; in data set [3], 9.92.

For the sequence CACTTAGC [8-mer CACTTAGC], the binding signal in data set [1] is 11.5; in data set [2], 12.6; in data set [3], 10.7.

On to AAGTGCGG [8-mer AAGTGCGG], for which the results for the binding signal in data set [1], in data set [2] and in data set [3] were 10.7, 12 and 10.5, respectively.

Consider ATGGCCCG [8-mer ATGGCCCG], for which the binding signal in data set [1] was 10.2; in data set [2], 10.4; in data set [3], 10.1.

As to ATGAAGAG [8-mer ATGAAGAG], the binding signal in data set [1] was 11; in data set [2], 11.7; in data set [3] it was 10.8.

Turning to GCACTTCA [8-mer GCACTTCA], the binding signal in data set [1] was 11.4; in data set [2] it was 12.8; in data set [3], 10.7.

Turning to AGCACTTA [8-mer AGCACTTA], the binding signal in data set [1] is 11.5; in data set [2] it was 12.9; in data set [3] it was 10.8.

In the case of CCACTTAC [8-mer CCACTTAC], the binding signal in data set [1] was 12.1; in data set [2] it was 13.1; in data set [3], 10.8.

Turning to ACTAAGTG [8-mer ACTAAGTG], the binding signal in data set [1] was 11.5; in data set [2], 12.6; in data set [3] it was 10.9.

On to AGGCGCGG [8-mer AGGCGCGG], for which the binding signal in data set [1], in data set [2] and in data set [3] was 10.1 throughout.

Consider CCCGACCG [8-mer CCCGACCG], for which the binding signal was 10 in data set [1], 10 in data set [2] and 10.1 in data set [3].

CACTTGAA [8-mer CACTTGAA]: the figures for the binding signal in data set [1], in data set [2] and in data set [3] were 11.9, 13.2 and 10.9, respectively.

Consider CGGTGACA [8-mer CGGTGACA], for which the figures for the binding signal in data set [1], in data set [2] and in data set [3] were 10.4, 10.5 and 10.4, respectively.

With ATCAAGTG [8-mer ATCAAGTG], the binding signal in data set [1] is 11.6; in data set [2] it was 12.8; in data set [3], 10.9.

In the case of GCAACGGA [8-mer GCAACGGA], the results for the binding signal in data set [1], in data set [2] and in data set [3] were 10.3, 10.3 and 10.4, respectively.

CTGGGATC [8-mer CTGGGATC]: the binding signal in data set [1] is 10.3; in data set [2] it was 10.3; in data set [3], 10.2.

Take CACTTATC [8-mer CACTTATC]: the figures for the binding signal in data set [1], in data set [2] and in data set [3] were 11.8, 12.9 and 10.9, respectively.

As for CGAGGCGC [8-mer CGAGGCGC], the values for the binding signal in data set [1], in data set [2] and in data set [3] were 10.3, 10.6 and 10.3, respectively.

Consider CACTTCAG [8-mer CACTTCAG], for which the binding signal in data set [1] is 11.4; in data set [2], 12.5; in data set [3], 10.6.

Take CGCATCCC [8-mer CGCATCCC]: the binding signal in data set [1] is 10.2; in data set [2], 10.4; in data set [3] it was 10.2.

TCAAGTGA [8-mer TCAAGTGA]: the binding signal in data set [1] is 11.5; in data set [2], 12.4; in data set [3], 10.8.

In the case of AAGTGGCC [8-mer AAGTGGCC], the binding signal was 11.5 in data set [1], 12.4 in data set [2] and 10.3 in data set [3].

Turning to AAACCGGG [8-mer AAACCGGG], the binding signal was 10.2 in data set [1], 10.2 in data set [2] and 10.1 in data set [3].

AGTACTTG [8-mer AGTACTTG]: the binding signal in data set [1] is 10.9; in data set [2] it was 12.6; in data set [3] it was 10.7.

Turning to GCCTCCGC [8-mer GCCTCCGC], the binding signal in data set [1], in data set [2] and in data set [3] was 10 in each case.

For the sequence CGCACTTA [8-mer CGCACTTA], the figures for the binding signal in data set [1], in data set [2] and in data set [3] were 11, 12.7 and 10.7, respectively.

Consider CTGACCCC [8-mer CTGACCCC], for which the binding signal in data set [1] is 10.3; in data set [2], 10.3; in data set [3], 10.1.

Turning to AGTCCGGA [8-mer AGTCCGGA], the binding signal in data set [1] was 10.3; in data set [2], 10.5; in data set [3] it was 10.4.

CCACTTTA [8-mer CCACTTTA]: the binding signal was 11.9 in data set [1], 12.9 in data set [2] and 10.9 in data set [3].

Consider AAGTGGTC [8-mer AAGTGGTC], for which the binding signal in data set [1] is 11.7; in data set [2], 12.6; in data set [3], 10.5.

For the sequence CCGGCGCC [8-mer CCGGCGCC], the binding signal in data set [1] was 10.1; in data set [2], 10.4; in data set [3] it was 10.1.

For CTAAGTAC [8-mer CTAAGTAC], the values for the binding signal in data set [1], in data set [2] and in data set [3] were 10.9, 12.3 and 10.6, respectively.

Regarding CAGACCGG [8-mer CAGACCGG], the binding signal in data set [1] was 10.1; in data set [2] it was 10.1; in data set [3], 10.2.

In the case of AAGGCAGC [8-mer AAGGCAGC], the binding signal in data set [1] was 10; in data set [2], 10; in data set [3], 10.1.

For CACTTATG [8-mer CACTTATG], the binding signal in data set [1] is 11.8; in data set [2], 13.2; in data set [3] it was 11.

With ACGGGAGG [8-mer ACGGGAGG], the values for the binding signal in data set [1], in data set [2] and in data set [3] were 10.1, 10.3 and 10.2, respectively.

CACTTAGG [8-mer CACTTAGG]: the binding signal is 11.5 in data set [1], 12.7 in data set [2] and 10.8 in data set [3].

On to CCAAGTGG [8-mer CCAAGTGG], for which the binding signal was 11.5 in data set [1], 12.4 in data set [2] and 10.5 in data set [3].

With AGCGACCC [8-mer AGCGACCC], the figures for the binding signal in data set [1], in data set [2] and in data set [3] were 10.2, 10.4 and 10.1, respectively.

With CACTTTTC [8-mer CACTTTTC], the binding signal in data set [1] is 11; in data set [2], 11.8; in data set [3], 10.7.

In the case of AACCACTT [8-mer AACCACTT], the binding signal in data set [1] was 12.1; in data set [2], 12.9; in data set [3] it was 10.8.

GACACTTA [8-mer GACACTTA]: the binding signal in data set [1] is 11.4; in data set [2], 12.8; in data set [3], 11.

As to ACCACTTA [8-mer ACCACTTA], the binding signal was 12.5 in data set [1], 13.3 in data set [2] and 10.9 in data set [3].
